# Experimental data reported in PMC6919601, “Identification of Plasmodium dipeptidyl aminopeptidase allosteric inhibitors by high throughput screening” (PLoS ONE, 2019).
# The campaign covered roughly 110,000 compounds. About 230 (0.21%) showed an effect of 50% or more. Some of the results follow.
# Target: DPAP1 (Plasmodium falciparum, UniProt Q8IIJ9)
# Experiment: primary screen, percent inhibition; read by cleavage of a fluorogenic dipeptide substrate; higher = more effect of the substance
# Parameters: species or system P. falciparum D10 trophozoite lysates; single well
# 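Further: 30 min substrate incubation versus DMSO and 10 µM JCP410 controls.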
# DPAP1, sequence (Q8IIJ9 whole entry, looked up): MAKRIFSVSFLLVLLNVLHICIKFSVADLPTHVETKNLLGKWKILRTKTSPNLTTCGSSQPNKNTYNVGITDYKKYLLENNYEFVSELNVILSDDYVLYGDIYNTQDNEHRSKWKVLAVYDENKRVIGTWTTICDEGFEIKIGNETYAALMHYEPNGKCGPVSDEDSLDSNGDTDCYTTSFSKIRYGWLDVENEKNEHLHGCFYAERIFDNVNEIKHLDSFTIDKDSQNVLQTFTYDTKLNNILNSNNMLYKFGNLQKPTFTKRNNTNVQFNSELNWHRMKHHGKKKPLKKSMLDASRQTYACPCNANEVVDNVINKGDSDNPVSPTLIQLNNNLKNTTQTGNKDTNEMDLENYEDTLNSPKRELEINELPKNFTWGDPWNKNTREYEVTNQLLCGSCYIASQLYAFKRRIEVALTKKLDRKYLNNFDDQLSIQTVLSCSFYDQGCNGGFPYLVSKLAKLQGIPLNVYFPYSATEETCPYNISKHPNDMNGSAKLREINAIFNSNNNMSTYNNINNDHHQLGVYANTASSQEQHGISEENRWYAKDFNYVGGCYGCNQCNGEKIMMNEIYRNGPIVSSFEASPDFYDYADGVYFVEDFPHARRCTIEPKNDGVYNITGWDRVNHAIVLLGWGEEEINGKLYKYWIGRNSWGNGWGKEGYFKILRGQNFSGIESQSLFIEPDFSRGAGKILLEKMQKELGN
row,Compound,% Inhibition @ 10 uM [%]
1,CCN1CCN(CC(O)COc2ccc(C(C)C)c(C)c2)CC1 (centres unmarked),-3.98
2,Cc1cc(OCC(CN(Cc2ccccc2)C(C)(C)C)OC(=O)c2ccco2)ccc1[N+](=O)[O-] (centres unmarked),1.7
3,CCC(C(=O)Nc1cc(Cl)ccc1OC)c1ccccc1 (centres unmarked),4.03
4,Cc1c(C(=O)NCCCN2CCOCC2)sc2ncnc(N3CCN(c4ccccn4)CC3)c12,-3.21
5,CCCNC(=O)c1cc(-c2ccco2)nc2ccccc12,6.1
6,Cc1cccc(NC(=O)c2cc3ccccc3oc2=O)c1,3.34
7,CCc1nnc(NC(=O)Cn2nc(Cc3ccncc3)c3ccccc3c2=O)s1,-2.92
8,CC(C(=O)NCCC1=CCCCC1)n1c2ccccc2c2cnn(C)c(=O)c21 (centres unmarked),5.88
9,C=CCNC(=O)CCCc1nc(-c2ccc(C)cc2)no1,-2.92
10,NS(=O)(=O)c1ccc(CCNS(=O)(=O)c2ccc3ncc(C(=O)O)c(O)c3c2)cc1,-1.28
11,Cc1n[nH]c(SCC(=O)c2ccc(O)cc2O)n1,4.01
12,COCCO/C(O)=C1/C(C)=NC2=C(C(=O)CCC2)C1c1ccc(Cl)cc1 (centres unmarked),-1.03
13,Oc1ncccn1,-2.88
14,CCCn1nc(NS(=O)(=O)c2ccc(C)cc2)c2cc3cc(C)ccc3nc21,4.18
15,COc1ccccc1/C=C/c1nc(C#N)c(NCCc2ccc(OC)c(OC)c2)o1,-10.3
16,COc1ccc(C2SCC(=O)N2c2nc3ccccc3s2)cc1 (centres unmarked),-3.64
17,COc1cccc(C(=O)Nc2ccc3ccccc3c2)c1OC,1.35
18,COc1cccc(C(=O)Nc2cccc(C)c2C)c1,1.15
19,CCCOc1ccc(N2C(=O)CC(SCC(=O)Nc3ccc(Cl)cc3)C2=O)cc1 (centres unmarked),1.78
20,COC(=O)c1cc(S(=O)(=O)N2CCN(Cc3ccc4c(c3)OCO4)CC2)c[nH]1,3.45
21,CN(CCc1ccccn1)Cc1ccc(F)c(F)c1,-4.15
22,Cc1ccc(C2=NS(=O)(=O)N(C)C(C(=O)Nc3sc4c(c3C(N)=O)CCCC4)=C2)cc1,9.86
23,COC(=O)c1cc(S(=O)(=O)NCC2CCN(Cc3cc(C)ccc3C)CC2)cn1C,-3.39
24,CCc1c(OC)ccc(/C=N/NC(=O)CSCc2ccc([N+](=O)[O-])cc2)c1OC,1.83
25,N#Cc1cc2c(N)c(C(=O)c3ccccc3)sc2nc1N,14.6

row,Compound,% Inhibition @ 10 uM [%]
1,COc1ccccc1Sc1ccccc1CC(C)N (centres unmarked),1.19
2,CCc1nnc2sc(-c3ccc(F)cc3)nn12,-4.67
3,COc1ccc(/N=C2/CCCN2C(=O)c2ccc(F)cc2)cc1,-2.77
4,Cc1ccc2c(c1)c1c3n2CCN(CC(O)COc2ccccc2C)C3CCC1 (centres unmarked),-1.75
5,O=C(O)c1cccc(NC(=O)c2ccc3c(c2)C(=O)N(Cc2ccco2)C3=O)c1,14.5
6,C1CCCC(N2CCC(N3CCCCC3)CC2)CC1,-3.57
7,CC(C)Cn1c(=O)c2c(nc3n2CCS3)n(C)c1=O,2.41
8,O=C(/C=C/C1=NN(c2ccccc2)C(c2ccccc2)C1)c1ccc(-c2ccccc2)cc1 (centres unmarked),-1.54
9,COc1cc(C(=O)/N=c2\sc(C)c(-c3ccccc3)n2C)cc(OC)c1OC,-2.32
10,CCOc1ccc(NS(=O)(=O)c2ccc(NC(=O)C(F)(F)F)cc2)cc1,-1.61
11,Cc1ccc(CN(C(=O)C(C)Oc2ccc(Cl)c(C)c2)C2CCS(=O)(=O)C2)o1 (centres unmarked),-1.11
12,CN(C)c1ccc(/C=C/CN2CCC(O)CC2)cc1,-3.42
13,O=C(NCc1ccc2c(c1)OCO2)c1sc2ccccc2c1Cl,-7.3
14,CC(CNC(=O)C1CCCN(S(=O)(=O)N2CCOCC2)C1)c1ccccc1 (centres unmarked),2.81
15,COc1cccc2sc(N(CCCN(C)C)C(=O)COc3ccccc3)nc12,5.38
16,O=C(CCCN1C(=O)c2ccccc2Sc2ncccc21)NCc1ccccn1,-6.65
17,COc1cc(CN2C[C@@H]3C[C@H](C2)c2cccc(=O)n2C3)cc2c1OCO2,-5.48
18,CCC(C)NC(=O)C1CC(=O)N(c2ccc(C(C)C)cc2)C1 (centres unmarked),-7.58
19,CCCn1c2ccccc2n2c(C(=O)OC)c(C)nc12,0.132
20,Cc1cc(C)c(NC(=O)c2c(Cl)c(C)nn2C)c(C)c1,0.777
21,Cc1ccc(C(=O)O)c(C(=O)Nc2cccnc2)c1,2.25
22,COc1cc(N)c2nc(OCc3ccc(Br)cc3)ccc2c1,0.528
23,O=c1c2c(nc3n1CCOC3)sc1c(O)c(Br)ccc12,-5.35
24,O=C(NCc1cccc(C(F)(F)F)c1)c1nc(-c2ccc(-n3cccc3)cc2)no1,-1.85
25,N#C/C(=C/c1ccccc1)c1nc(-c2cccs2)cs1,-4.24
